Consider 44 sequences from the supplement of paper PMC11417369.

Some of the results follow.

The test relates to PfAP2-HC AP2 domain (GST-tagged). Briefly: gcPBM binding intensity (ln(normalized median fluorescence intensity)); higher = stronger DNA binding. The procedure, abridged: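 The binding buffer was 1× PBS containing 1% milk, 0.2 mg/ml BSA, 0.5% salmon testes DNA and 0.03% Triton X-100. In it, GST-tagged P. falciparum DNA-binding domains expressed in E. coli were applied for 1 h to an Agilent 4 × 180k array of primer-extended double-stranded 36-bp intergenic genomic probes plus negative controls. Binding intensity, read with Alexa488 anti-GST antibody and a 488 nm scan, is the highest Masliner-normalised natural-log median intensity across replicate spots of either probe orientation.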
Regarding “AATAATGAAAAATCAAATAACCTAAATTACAACTGT [XGTACX_negctrl_site65]”, the “gcPBM binding intensity (ln)” value was 9.69.

Consider “TTTTATTTATCATACACACACAGAAAAAAAAAAAAA [CACACA_site158]”, for which the “gcPBM binding intensity (ln)” value worked out at 9.9.

As to “GAATGTTTATTATATGCATGTTATATATATGAATAT [TGCATGCA_site4]”, the “gcPBM binding intensity (ln)” value is 9.65.

Turning to “CCTTTCCTTTTATAAGTGCATATAACAAATGTATAC [GTGCAC_site9872]”, the “gcPBM binding intensity (ln)” value was 9.64.

As to “ATTAAAGTTATAAATTCACACATGTAAATGTATTTA [CACACA_site5279]”, the “gcPBM binding intensity (ln)” value was determined as 9.58.

On to “ATATATTATATATGCGCACACACGAATTTTTTTTTT [CACACA_site2393]”, for which the “gcPBM binding intensity (ln)” value stood at 10.1.

Consider “GTTATATATGATGGAAGCACTTGGAAGAGGGAAATA [CACACA_negctrl_site1831]”, for which the “gcPBM binding intensity (ln)” value was found to be 9.64.

With “GATAAATATTTAATATGTACATATATTATATATATA [XGTACX_site117]”, the “gcPBM binding intensity (ln)” value stood at 9.66.

Consider “AAAAATAAAAAAATAAAAAATAAAAAAATAAAAAAT [CACACA_negctrl_site1425]”, for which the “gcPBM binding intensity (ln)” value came out at 9.65.

In the case of “TATATACACACCGTGTGTACATATACATTAACTGAA [XGTACX_site7120]”, the “gcPBM binding intensity (ln)” value was found to be 10.

Turning to “TATATATACATACGTACACACAAATATTAAAATATA [CACACA_site1951]”, the “gcPBM binding intensity (ln)” value was determined as 9.79.

In the case of “TCAAAATTGCTTTGTTGTACTAATAAAATTTATTAC [XGTACX_site1121]”, the “gcPBM binding intensity (ln)” value turned out to be 9.54.

For the sequence “TATCTGTAAACATATTCACACACATAAATTCGCATA [CACACA_site8557]”, the “gcPBM binding intensity (ln)” value stood at 9.97.

As for “TACACTAATGACAGTTGTACTTTTATTCGATAGAAT [XGTACX_site738]”, the “gcPBM binding intensity (ln)” value was found to be 9.51.

With “TATATATATATAATATGTACATATATACATGCCTTG [XGTACX_site2791]”, the “gcPBM binding intensity (ln)” value was determined as 9.67.

For “ACTTTTTTTTTGTGTGTGCACTCGATTATATACATA [GTGCAC_site9846]”, the “gcPBM binding intensity (ln)” value came to 10.2.

“TCGAAAATGACGAATGGTACAGTATGTATAAAAATA [XGTACX_site1258]”: the “gcPBM binding intensity (ln)” value turned out to be 9.64.

In the case of “ATGGCATAAATATATGCACACACAAAAAAAAAAAAA [CACACA_site7902]”, the “gcPBM binding intensity (ln)” value stood at 9.94.

As to “AAAAAGAAAAAGAGCACACAAAAATATTTAACCTTT [CACACA_site2747]”, the “gcPBM binding intensity (ln)” value came to 10.1.

Turning to “TTTCTTTTTTTTTGAAGTACATAAAAATATAAAAAA [XGTACX_site311]”, the “gcPBM binding intensity (ln)” value was found to be 9.18.

Take “ATATATATATGTATGTATATATATATATATATGTTT [CACACA_negctrl_site248]”: the “gcPBM binding intensity (ln)” value was 9.74.

With “AATATTATAAAATATTGTACTTAAAAAATTATTAAA [XGTACX_site2469]”, the “gcPBM binding intensity (ln)” value worked out at 9.53.

Regarding “TAAATTTTTTCTTTTTGTACATATTTTAAAAATGTT [XGTACX_site7526]”, the “gcPBM binding intensity (ln)” value was 9.53.

In the case of TATAAATTTATACCAGTGCATTTTGAAATATATATA, the “gcPBM binding intensity (ln)” value came to 9.5.

Take “TGGAACCATAAAAAGTGTACACATATAAAAAATATG [XGTACX_site96]”: the “gcPBM binding intensity (ln)” value came out at 9.89.

For “ATAATATGAGTCCCACAAAATAGACCATACGAATAT [CACACA_negctrl_site50]”, the “gcPBM binding intensity (ln)” value stood at 9.66.

For “TATATTTATATAATATGTACATATTTTTTAATATTT [XGTACX_site3834]”, the “gcPBM binding intensity (ln)” value stood at 9.64.

For “TATTTTATTTTCCGAAGTACAAAAGCAAAAAAAAAC [XGTACX_site103]”, the “gcPBM binding intensity (ln)” value is 9.38.

In the case of “AGCTAAAATATTTTTGCACACGATTTTTTTTTTTTT [CACACA_site1140]”, the “gcPBM binding intensity (ln)” value was determined as 9.69.

In the case of “TATATATTTTATATATGTACATATTTATATGTTTCT [XGTACX_site1818]”, the “gcPBM binding intensity (ln)” value amounted to 9.76.

Turning to “AAAAAAAAGTTATATACACACATATAAATATAAATA [CACACA_site6683]”, the “gcPBM binding intensity (ln)” value was 9.98.

In the case of “CGCGAACATACATACACACACATATATATATATGTA [CACACA_site205]”, the “gcPBM binding intensity (ln)” value amounted to 10.2.

Regarding “TTTTTTTTTTTTTGAACACACATTATTAACTTTTAT [CACACA_site6281]”, the “gcPBM binding intensity (ln)” value worked out at 9.77.

Take “AAAAATATTAAAAGGCGTACAATACCTGTATGCAAC [XGTACX_site6069]”: the “gcPBM binding intensity (ln)” value came to 9.8.

Regarding “CATGTAAAATATTAAAGTACATGATTATATATATAT [XGTACX_site7486]”, the “gcPBM binding intensity (ln)” value is 9.77.

Consider “ATGCACGGAAAAATATGTACTTAATTTCAATAATAT [XGTACX_site8311]”, for which the “gcPBM binding intensity (ln)” value amounted to 9.61.

“CGGACATACTAACGGACACACGTAAGAAAAAAAAAG [CACACA_site4504]”: the “gcPBM binding intensity (ln)” value turned out to be 10.1.

“AGAGAGAACGGTATAACATGCGATAAATTTTAGAAG [TGCATGCA_site357]”: the “gcPBM binding intensity (ln)” value is 9.91.

For the sequence “TATATGTCCATATTTCCACACACATATTATTTTTAT [CACACA_site9266]”, the “gcPBM binding intensity (ln)” value came to 10.3.

On to “TATTAATTTTTCCTTTTTTTTTTACCCCTTTGTACA [CACACA_negctrl_site947]”, for which the “gcPBM binding intensity (ln)” value amounted to 9.51.

In the case of “ATATATTATATTATATGTACTTAAAAAAGTGCAAAG [XGTACX_site318]”, the “gcPBM binding intensity (ln)” value came out at 9.66.

Turning to “TATATTCAATTTTTGGTGCGTAAATTAATACAAACA [GTGCAC_site9764]”, the “gcPBM binding intensity (ln)” value was determined as 9.45.

For the sequence “AAATAATACATTCGTACTACACATATATATTAAATA [XGTACX_site7806]”, the “gcPBM binding intensity (ln)” value was 9.74.

Turning to “AATATATACATATATACACACACATATATATATATA [CACACA_site8907]”, the “gcPBM binding intensity (ln)” value stood at 10.2.
